Reference: patent US20190010231A1 (Pieris, published 2019)

Assays:
[1] = target: T1, human LAG-3-His (LAG-3 with C-terminal polyhistidine tag, ACROBiosystems) (human, UniProt P18627 23-450); assay: ELISA on LAG-3-His, detection via anti-Tlc antibody-HRP
T1 construct: Bought protein; also called recombinant LAG-3-His
T1 sequence (looked up): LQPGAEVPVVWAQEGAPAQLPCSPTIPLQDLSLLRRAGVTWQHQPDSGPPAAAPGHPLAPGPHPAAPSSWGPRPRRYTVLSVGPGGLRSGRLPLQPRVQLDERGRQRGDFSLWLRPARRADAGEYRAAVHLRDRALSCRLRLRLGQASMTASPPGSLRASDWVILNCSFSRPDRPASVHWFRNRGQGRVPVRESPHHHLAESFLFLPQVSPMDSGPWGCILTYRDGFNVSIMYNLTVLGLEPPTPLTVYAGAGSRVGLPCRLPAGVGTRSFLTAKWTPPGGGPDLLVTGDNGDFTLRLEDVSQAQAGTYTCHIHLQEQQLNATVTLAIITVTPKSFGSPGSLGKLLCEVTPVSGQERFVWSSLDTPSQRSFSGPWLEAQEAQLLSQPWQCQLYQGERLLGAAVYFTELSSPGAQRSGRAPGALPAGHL

[2] = target: T1, human LAG-3-His (LAG-3 with C-terminal …); assay: ELISA on LAG-3-His, detection via anti-human IgG Fc-HRP

B1: Fc-lipocalin mutein fusion polypeptide (SEQ ID NO: 41) (Fc fusion)
chain: [not shown - human IgG4 Fc with S228P (EU numbers)]GGGGSGGGGSGGGGSASDEEIQDVSGTWYLKAMTVDSDCFWIDDVSVTPMTLTTLEGGNLEAKVTMDIFGFWQEVKAVLEKTDEPGKYTADGGKHVAYIIRSHVKDHYIFYSEGECAGYPVPGVWLVGRDPKNNLEALEDFEKAAGARGLSTESILIPRQSETSSPG
notes: also called lipocalin mutein Fc fusion; LAG-3 monospecific fusion polypeptide
EC50 [1]: 0.09 nM
EC50 [2]: 0.07 nM

B2: Fc-lipocalin mutein fusion polypeptide (SEQ ID NO: 42) (Fc fusion)
chain: [not shown - human IgG4 Fc with S228P (EU numbers)]GGGGSGGGGSGGGGSASDEEIQDVPGTWYLKAMTVSGEDPEMMLESVTPMTLTTLEGGNLEARVTVLIDGRCQEVKNVLEKTDEPGKYTEDGGKHVDYIIRSHVKDHYIFYFEGEGQGTPGRMVALVGRDPTNNLEALEDFEKAAGARGLSTESILIPRQSETCSPG
notes: as for B1
EC50 [1]: 1.5 nM
EC50 [2]: 1.1 nM
